Assay results: paper PMC4336329 (PLoS ONE, 2015)
Hit rate of the full screen: of about 310,000 compounds, about 2,200 (0.71%) showed an effect of 50% or more. Effects have a minus sign here. Some of the results follow.

molecular target: human ether-à-go-go-related gene (hERG) potassium channel (human, UniProt Q12809); experiment: primary screen, population patch clamp on CHO cells stably expressing hERG
Sequence (Q12809 whole entry, looked up): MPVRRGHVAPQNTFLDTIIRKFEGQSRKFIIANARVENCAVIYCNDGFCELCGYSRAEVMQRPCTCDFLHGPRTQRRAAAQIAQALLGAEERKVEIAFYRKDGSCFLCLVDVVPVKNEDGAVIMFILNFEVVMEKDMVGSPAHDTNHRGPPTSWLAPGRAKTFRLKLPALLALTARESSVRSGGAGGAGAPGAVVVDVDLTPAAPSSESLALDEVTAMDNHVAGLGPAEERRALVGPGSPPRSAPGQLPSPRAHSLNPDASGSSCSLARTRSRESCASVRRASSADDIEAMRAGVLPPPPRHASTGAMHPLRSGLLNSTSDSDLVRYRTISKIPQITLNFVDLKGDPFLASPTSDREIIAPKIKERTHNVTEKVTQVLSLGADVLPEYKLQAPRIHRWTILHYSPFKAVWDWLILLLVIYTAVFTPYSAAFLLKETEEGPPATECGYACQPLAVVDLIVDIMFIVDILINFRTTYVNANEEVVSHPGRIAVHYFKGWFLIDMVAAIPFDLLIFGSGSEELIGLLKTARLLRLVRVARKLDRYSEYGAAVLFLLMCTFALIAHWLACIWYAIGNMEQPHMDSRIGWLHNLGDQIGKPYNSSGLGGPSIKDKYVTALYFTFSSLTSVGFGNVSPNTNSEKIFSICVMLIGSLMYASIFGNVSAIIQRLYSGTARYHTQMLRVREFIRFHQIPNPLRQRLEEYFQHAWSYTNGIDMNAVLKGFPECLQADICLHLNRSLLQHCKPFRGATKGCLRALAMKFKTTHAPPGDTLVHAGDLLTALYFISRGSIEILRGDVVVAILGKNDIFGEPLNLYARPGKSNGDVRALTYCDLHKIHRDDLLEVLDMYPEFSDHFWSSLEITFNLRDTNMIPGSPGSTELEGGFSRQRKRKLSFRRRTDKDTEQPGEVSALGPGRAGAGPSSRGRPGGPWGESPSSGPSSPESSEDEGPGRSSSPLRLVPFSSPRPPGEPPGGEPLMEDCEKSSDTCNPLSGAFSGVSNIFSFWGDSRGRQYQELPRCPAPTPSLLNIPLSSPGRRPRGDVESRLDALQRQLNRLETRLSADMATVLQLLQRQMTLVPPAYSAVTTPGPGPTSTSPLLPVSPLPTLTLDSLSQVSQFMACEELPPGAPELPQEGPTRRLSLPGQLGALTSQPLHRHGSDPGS

SMILES	hERG current change (%, negative = inhibition) at 1uM
Cc1cccc(Cn2c(C(C)O)nc3ccccc32)c1 (stereo not drawn)	9.66%
CC(C)(C)N1CC23C=CC(C[C@@H]2C1=O)O3 (stereo partly drawn)	-0.349%
Fc1cccc(CCN2CCNC[C@@H]2CC2CCCCC2)c1	1.12%
COc1ccc2cc3c(N)c(C(=O)NCc4ccco4)sc3nc2c1	1.04%
Cc1cccc(NC(=O)c2ccc(-n3cccn3)c([N+](=O)[O-])c2)c1	3.7%
CCOC(=O)[C@@H]1[C@H]2COc3ccccc3[C@@H]2N2C(=O)N(c3ccc(OC)cc3)C(=O)[C@]12C	-4.92%
CC(C)CCn1c(Cl)nc2c1c(=O)n(C)c(=O)n2C	10.8%
CC(C)(C)NS(=O)(=O)c1ccc(CCC(=O)NCc2ccc3c(c2)OCO3)cc1	-4.5%
COc1cccc(/C=C/C(=O)NNC(=O)CCN2CCN(Cc3ccccc3)CC2)c1	-7.16%
O=C(NC1CCCCC1)C(=S)N1CCOCC1	7.11%
COc1ccc(NC(=O)CSCC(=O)Nc2ccccc2C(=O)N2CCCCC2)cc1	11%
O=C(CCl)N1N=C(c2ccco2)CC1c1cccs1 (stereo not drawn)	7.99%
CC(Oc1cc(C(F)(F)F)cc(C(F)(F)F)c1)C(=O)NC(N)=O (stereo not drawn)	-0.401%
COc1cc(Br)cc(C=Nc2cccc(C(F)(F)F)c2)c1O	13.5%
O=C(OCn1ncc(Br)c(Br)c1=O)c1c(F)cccc1F	5.29%
COc1ccc(-c2nnc(SCc3cccnc3)o2)cc1	-0.205%
COc1cc2c(cc1OC)CC(=O)NC=C2	3.4%
O=C1C(=O)N(CCO)C(c2cccc(F)c2)/C1=C(\O)c1ccc(Cl)cc1 (stereo not drawn)	-0.365%
COc1cc2c(cc1OC)C(c1cc(C)ccc1C)CC(=O)N2 (stereo not drawn)	12.5%
Cc1cc(C)c(NC(=S)NCCCSC2CCCCC2)c(C)c1	10.7%
O=C(CNC(=O)c1ccc(Cl)cc1Cl)NCc1ccccn1	13.2%
Cc1cc2c(=O)n(C)c(SCC(=O)Nc3cccc(O)c3)nc2s1	8.14%
CCN(CC)C(=O)Cn1cnc2sc(C(=O)Nc3cc(OC)c(OC)c(OC)c3)c(C)c2c1=O	11.3%

SMILES	hERG current change (%, negative = inhibition) at 1uM
COC(=O)c1ccc(C23CC4(C2)[C@H](CN(C)[C@@H]4c2ccccc2)C3c2ccccc2)cc1 (stereo partly drawn)	11.7%
O=C(O)CCCSc1nccn1-c1ccccc1	16%
CN1CCN(C(=O)c2ccc3c(c2)N(Cc2ccccc2)CCS3)CC1	0.919%
O=C(NCc1ccc(Cl)cc1)N1CCc2ccccc2C1	15.2%
O=C(NCn1ccc(=O)[nH]c1=S)c1ccccc1	13.3%
Cc1ccc(S(=O)(=O)N(C)CC(=O)NCCCn2ccnc2)cc1	22.1%
CN(Cc1ccccc1)S(=O)(=O)c1ccc(Cl)c(C(=O)NCCc2ccccn2)c1	-12.4%
O=C(CSc1ccccc1)Nc1ccc(N2CCOCC2)cc1	10.6%
COC(=O)c1cc(S(=O)(=O)NCC2CCN(CCc3cccs3)CC2)cn1C	-6.07%
O=C(CN1C(=O)NC2(CCCCC2)C1=O)Nc1cccc2ncccc12	8.01%
COc1ccccc1N1CCN(C(=O)CSc2nnc(NC(=O)c3ccco3)s2)CC1	14.1%
Cc1ccc2nc(SCC(=O)Nc3c(C)n(C)n(-c4ccccc4)c3=O)[nH]c2c1	4.89%
COCC(=O)Nc1nnc(SCC(=O)N2CCCCC2)s1	17.4%
CCN1C(=O)NC(=O)/C(=C\c2ccc(N3CCOCC3)cc2OC)C1=O	12.2%
Cc1ccc(C(=O)c2ccc(N3CCN(C)CC3)c([N+](=O)[O-])c2)cc1	-4.68%
CCn1c(SCC(=O)NC2(C#N)CCCCC2)nc2ccccc2c1=O	7.2%
O=C(CCCOc1cccc(Br)c1)NCCOc1ccccc1	5.62%
O=C(NC(=O)N1CCCCC1)c1ccc(Cl)cc1	16.9%
COc1ccc2oc(C(=O)N3CCN(C(=O)c4ccco4)CC3)c(C)c2c1	4.58%
CC(=O)NC(c1ccc(C)cc1)c1cc([N+](=O)[O-])c2cccnc2c1O (stereo not drawn)	6.54%
Cc1ccc(NC(=O)CN(C)C(=O)c2cc(C)on2)cc1	4.64%
N#Cc1nc(-c2cccc(Cl)c2)oc1N1CCC(C(N)=O)CC1	7.15%
